SMILES strings stand for the structures. About 540 (0.36%) of roughly 150,000 compounds showed an effect of 50% or more. This is one part of the list.

The source of these data is ChEMBL document CHEMBL4888484, “Replenishing the malaria drug discovery pipeline: Screening and hit evaluation of the MMV Hit Generation Library 1 (HGL1) against asexual blood stage Plasmodium falciparum ,using a nano luciferase reporter read-out” (2022).

The test system of this assay is Plasmodium falciparum. Put plainly: Primary screen in NF54 nanoGlo assay, in single point, at 2uM, 72h; a lower Z score goes with more inhibition. The settings on record: timepoint 72 hour. The format is functional, Erythrocyte.
In the case of `C[C@@H](Cc1ccc(O)cc1)NCc1cc[nH]n1`, the “% Inhibition” value came out at 37% and the Z score is -1.08.

For the compound `Cc1cccc(=O)n1C[C@](C)(O)C(=O)Nc1cc(CC(C)(C)C)n[nH]1`, the “% Inhibition” value is given as -13% and the Z score worked out at 1.22.

For the compound `COc1ccc(-c2nc(-c3ccc4c(c3)oc(=O)n4C(C)C)no2)c(C)c1`, the “% Inhibition” value was -15% and the Z score is given as 1.48.

As for `CC1CC(C)C2N(C1)c1ccccc1CC21C(=O)NC(=O)N(C)C1=O` (stereo unspecified), the “% Inhibition” value is 1% and the Z score is listed as -0.13.

In the case of `C#C[C@H]1C[N@@]2CC[C@H]1C[C@@H]2CNCc1ccc2c(c1)OCO2`, the “% Inhibition” value is 9% and the Z score is -1.13.

In the case of `COc1ccc(OC(=O)NC(C)C)cc1`, the “% Inhibition” value is listed as -14% and the Z score was found to be 1.7.

On to `COc1cccnc1-c1cccc2c1CCNC2`, for which the “% Inhibition” value is 14% and the Z score was -1.98.

Regarding `Cc1nc(CNCCc2c[nH]c3ccccc23)cs1`, the “% Inhibition” value was -11% and the Z score was found to be 1.72.

Take `O=C(Cn1c(-c2ccccc2)cc2ccccc21)N1C[C@@H]2C[C@@H](C1)c1cccc(=O)n1C2`: the “% Inhibition” value is on record as -10% and the Z score was determined as 1.93.

With `COc1ccc(-c2ccc3n(c2=O)C[C@H]2C[C@@H]3CN(S(C)(=O)=O)C2)cc1`, the “% Inhibition” value is -2% and the Z score is on record as 0.44.

Take `COc1cccc(CCNCc2c(Br)c(C)nn2C)c1`: the “% Inhibition” value is on record as -7% and the Z score was found to be 1.08.

As for `Cc1ccc([C@@H]2CN(C(=O)c3cccc(O)c3C)[C@@H]3C4CCN(CC4)[C@@H]32)cc1`, the “% Inhibition” value is -9% and the Z score was 0.93.

For the compound `CCC(=O)N1N=C(c2c(O)n(C)c(=O)n(C)c2=O)C[C@H]1c1ccc(N(CC)CC)cc1`, the “% Inhibition” value is -4% and the Z score worked out at 0.77.

For the compound `CCc1nccn1C[C@H](C)N(C)Cc1ncc[nH]1`, the “% Inhibition” value was -14% and the Z score is on record as 2.14.

`O=C(NCC#CCN1CCCC1)NCc1ccccc1`: the “% Inhibition” value is listed as -7% and the Z score is 1.32.

As to `O=C(Cn1c(-c2ccccn2)noc1=O)Nc1ccccc1-c1ccccc1`, the “% Inhibition” value is on record as -2% and the Z score worked out at 0.33.

With `Cc1n[nH]c([C@@H]2CN(C(=O)Cc3cccnc3)CCCN2Cc2ccccc2)n1`, the “% Inhibition” value was -8% and the Z score was 1.42.

For the compound `COCCO[C@H]1COCCN(C2CCOCC2)C1`, the “% Inhibition” value came out at 32% and the Z score is given as -3.62.

Consider `O=C1NC(=O)C2(Cc3ccccc3N3CCCCCC32)C(=O)N1c1ccccc1` (stereo unspecified), for which the “% Inhibition” value is recorded as -1% and the Z score came to 0.2.

With `O=C(ON1CC1(C(F)(F)F)C(F)(F)F)c1ccccc1` (stereo unspecified), the “% Inhibition” value is listed as -16% and the Z score is given as 2.17.

As for `Cc1oc2ncn(C)c(=O)c2c1C(=O)N1CCC2(CC1)OCCO2`, the “% Inhibition” value was -6% and the Z score was 0.95.

For `COc1cccc([C@H]2CCN(Cc3cccc4[nH]ccc34)C[C@@H]2O)c1`, the “% Inhibition” value was -7% and the Z score worked out at 1.33.

As to `COC(=O)C12CCCC1CN(Cc1cc[nH]n1)C2` (stereo unspecified), the “% Inhibition” value worked out at 7% and the Z score is on record as -1.26.

For the compound `c1ccc(CCN(Cc2cccnc2)Cc2ccoc2)cc1`, the “% Inhibition” value is on record as -1% and the Z score was determined as 0.23.

On to `O=c1cccc2n1CC1CC2CN(C2Cc3ccccc3C2)C1` (stereo unspecified), for which the “% Inhibition” value was determined as 5% and the Z score is reported as -0.6.

Consider `Nc1ccc2c(c1)[C@H](c1ccccc1)NCC(=O)N2`, for which the “% Inhibition” value stood at 28% and the Z score is -3.16.

As to `Cc1ccc2c(c1)[C@H]1CN(C)CC[C@@H]1N2C(=O)CC(n1cccn1)C(F)(F)F` (stereo partly specified), the “% Inhibition” value is -14% and the Z score is on record as 1.52.

Take `COCCn1ccc(C(=O)N[C@H]2CCc3nc(C(C)C)nn3C2)n1`: the “% Inhibition” value stood at 71% and the Z score is recorded as -11.17.

Take `CCC(=O)NCC(=O)N[C@@H](C)Cc1ccc(Cl)cc1Cl`: the “% Inhibition” value is -4% and the Z score is reported as 0.56.

On to `CC1CCCC(C)C1NC1CC2CCC1O2` (stereo unspecified), for which the “% Inhibition” value is recorded as -3% and the Z score is 0.39.

`Cc1cc(CN2C3CCC2CC(=O)C3)ccc1F`: the “% Inhibition” value is recorded as -5% and the Z score was found to be 0.93.

With `CCn1nc(C)c(CN[C@@H](C)Cn2ccnc2)c1C`, the “% Inhibition” value stood at 2% and the Z score is reported as -0.34.

Take `COc1cccc(CN2CC(C)OC3(CCOC3)C2)n1` (stereo unspecified): the “% Inhibition” value is -13% and the Z score turned out to be 1.6.

As for `COc1ccccc1C(=O)N1C[C@@H]2C[C@H](C1)c1c(-c3ccccc3F)ccc(=O)n1C2`, the “% Inhibition” value is reported as -7% and the Z score is on record as 1.08.

Take `Cc1ccc2c(c1)C[C@]1(CN2C)C(=O)N(C(C)C)C(=O)N=C1O`: the “% Inhibition” value is on record as -2% and the Z score turned out to be 0.24.

Take `O=c1[nH]c2ccccc2c(=O)n1-c1cccnc1`: the “% Inhibition” value was -18% and the Z score came out at 3.12.

Consider `O=S1(=O)CC[C@@H]2CN(Cc3ncccc3C(F)(F)F)C[C@@H]21`, for which the “% Inhibition” value turned out to be 6% and the Z score is on record as -1.15.

As for `CN(C)[C@@H](Cn1cnnc1)c1ccccn1`, the “% Inhibition” value is listed as -2% and the Z score is reported as 0.31.

For the compound `CCn1cc(-c2ccc(F)cc2)cc1C(=O)N1CCC2(CC1)OCCO2`, the “% Inhibition” value was -1% and the Z score is 0.19.

With `Cc1ccc(C(=O)[C@@H]2CCCN2)cc1C`, the “% Inhibition” value was -13% and the Z score was determined as 1.72.

With `Cc1oc(S(N)(=O)=O)cc1C(=O)N1C2CCC1C(CO)C2` (stereo unspecified), the “% Inhibition” value is 0% and the Z score is recorded as 0.04.

With `O=C1CO[C@H]2CN(Cc3ccccc3)C[C@H]2N1Cc1ccccn1`, the “% Inhibition” value came out at 16% and the Z score is listed as -1.86.

Take `O=C1NCCN2CCN(C(=O)c3ccc4ccccc4n3)CC[C@@H]12`: the “% Inhibition” value was -2% and the Z score was found to be 0.41.

A word on the % Inhibition: it is the relative decrease from the control value, in per cent.
